{"source": "paper PMC11995724", "about": "“Antibiotic target discovery by integrated phenotypic and activity-based profiling of electrophilic fragments” (Cell chemical biology, 2025)", "note": "Screen size: about 3,200 compounds; about 75 (2%) showed an effect of 50% or more. This is one part of the list.", "data": [{"tested_on": "T1, S. aureus MSSA476", "T1 construct": "MSSA476", "set-up": "species or system S. aureus MSSA476 (TSB) or V. cholerae SAD30 (LB); 384-well bacterial growth screen at 25 uM, OD600 relative to DMSO control", "settings": "relative growth, OD600, TSB; 25 µM; inhibitor", "units": {"% of control remaining": "%"}, "values": [{"compound": "C=CC(=O)N(C)CCCn1c(=O)c(C)nc2ccccc21", "note": "[1-I08, N-methyl-N-[3-(3-methyl-2-oxo-1,2-dihydroquinoxalin-1-yl)propyl]prop-2-enamide]", "% of control remaining": 109.363}, {"compound": "O=C(CCl)NCCc1nc2ccccc2s1", "note": "[6-K20, N-[2-(1,3-benzothiazol-2-yl)ethyl]-2-chloroacetamide]", "% of control remaining": 93.561}, {"compound": "CN(C)c1ccc(C=C(C#N)C(=O)Nc2ccc3c(c2)OCCO3)cc1", "note": "[9-B21, 2-cyano-N-(2,3-dihydro-1,4-benzodioxin-6-yl)-3-[4-(dimethylamino)phenyl]prop-2-enamide]", "% of control remaining": 106.067}, {"compound": "CC(Cl)C(=O)N1CCn2cccc2C1c1ccccc1", "note": "(centres unmarked) [7-E11, 2-chloro-1-{1-phenyl-1H,2H,3H,4H-pyrrolo[1,2-a]pyrazin-2-yl}propan-1-one]", "% of control remaining": 118.053}, {"compound": "Cc1ccc(NC(=O)CN2CCN(C(=O)CCl)CC2)cc1.Cl", "note": "[4-D16, 2-[4-(2-chloroacetyl)piperazin-1-yl]-N-(4-methylphenyl)acetamide hydrochloride]", "% of control remaining": 131.872}, {"compound": "O=C(CCl)N(Cc1cnn(-c2ccccc2)c1)C1CC1", "note": "[6-L09, 2-chloro-N-cyclopropyl-N-[(1-phenyl-1H-pyrazol-4-yl)methyl]acetamide]", "% of control remaining": 96.6341}, {"compound": "Cc1cc2ncn(CC(NC(=O)C(C)Cl)C3CC3)c2cc1C", "note": "(centres unmarked) [7-J17, 2-chloro-N-[1-cyclopropyl-2-(5,6-dimethyl-1H-1,3-benzodiazol-1-yl)ethyl]propanamide]", "% of control remaining": 117.425}, {"compound": "CC(C)c1ccc(Cn2[nH]ccc2=NC(=O)CCl)cc1", "note": "[5-P12, 2-chloro-N-(2-{[4-(propan-2-yl)phenyl]methyl}-2,3-dihydro-1H-pyrazol-3-ylidene)acetamide]", "% of control remaining": 96.1749}, {"compound": "CC(Cl)C(=O)NC1c2cc(F)ccc2CC1C", "note": "(centres unmarked) [7-E16, 2-chloro-N-(6-fluoro-2-methyl-2,3-dihydro-1H-inden-1-yl)propanamide]", "% of control remaining": 106.75}, {"compound": "C=CC(=O)NCc1ccc(C(=O)N2CCCCC(SC)C2)cc1", "note": "(centres unmarked) [2-B20, N-({4-[3-(methylsulfanyl)azepane-1-carbonyl]phenyl}methyl)prop-2-enamide]", "% of control remaining": 123.238}, {"compound": "CC(Cl)C(=O)NCCc1nc(C2CCCCC2)cs1", "note": "(centres unmarked) [7-F09, 2-chloro-N-[2-(4-cyclohexyl-1,3-thiazol-2-yl)ethyl]propanamide]", "% of control remaining": 109.576}, {"compound": "N#CC(=Cc1ccc(Cl)cc1)C(=O)Nc1ccccn1", "note": "[9-H16, 3-(4-chlorophenyl)-2-cyano-N-(pyridin-2-yl)prop-2-enamide]", "% of control remaining": 89.2884}, {"compound": "C=CC(=O)NCC(CC)n1nc(C)cc1C", "note": "(centres unmarked) [1-K21, N-[2-(3,5-dimethyl-1H-pyrazol-1-yl)butyl]prop-2-enamide]", "% of control remaining": 106.549}, {"compound": "C=CC(=O)NCc1nc(-c2ccccc2)oc1C", "note": "[3-C05, N-[(5-methyl-2-phenyl-1,3-oxazol-4-yl)methyl]prop-2-enamide]", "% of control remaining": 104.832}, {"compound": "Cc1nn(C)c(C)c1C=C(C#N)C(=O)Nc1ccccc1F", "note": "[9-I07, 2-cyano-N-(2-fluorophenyl)-3-(1,3,5-trimethyl-1H-pyrazol-4-yl)prop-2-enamide]", "% of control remaining": 101.273}, {"compound": "CC(Cl)C(=O)Nc1ccccc1OC(F)F", "note": "(centres unmarked) [6-J08, 2-chloro-N-[2-(difluoromethoxy)phenyl]propanamide]", "% of control remaining": 92.878}, {"compound": "N#CC(=Cc1ccc(C(F)(F)F)cc1)C(=O)Nc1ccccc1", "note": "[9-I04, 2-cyano-N-phenyl-3-[4-(trifluoromethyl)phenyl]prop-2-enamide]", "% of control remaining": 99.7753}, {"compound": "C=CC(=O)N1CCC(CCO)c2ccccc21", "note": "(centres unmarked) [3-O03, 1-[4-(2-hydroxyethyl)-1,2,3,4-tetrahydroquinolin-1-yl]prop-2-en-1-one]", "% of control remaining": 111.798}, {"compound": "C=CC(=O)Nc1ccc(C)cc1S(=O)(=O)N1CCOCC1", "note": "[1-O13, N-[4-methyl-2-(morpholine-4-sulfonyl)phenyl]prop-2-enamide]", "% of control remaining": 117.099}, {"compound": "CC(Cl)C(=O)Nc1ccc(Cl)c(S(=O)(=O)N(C)C)c1", "note": "(centres unmarked) [5-G21, 2-chloro-N-[4-chloro-3-(dimethylsulfamoyl)phenyl]propanamide]", "% of control remaining": 102.368}, {"compound": "COc1ccc(CNC(=O)C(C)Cl)cc1OC", "note": "(centres unmarked) [6-P10, 2-chloro-N-[(3,4-dimethoxyphenyl)methyl]propanamide]", "% of control remaining": 91.5122}, {"compound": "Cc1cc(C(=O)CCl)c(C)n1Cc1cccs1", "note": "[10-D03, 2-chloro-1-{2,5-dimethyl-1-[(thiophen-2-yl)methyl]-1H-pyrrol-3-yl}ethan-1-one]", "% of control remaining": 122.5}, {"compound": "COc1ccc(CN(C)C(=O)CCl)cc1", "note": "[6-M15, 2-chloro-N-[(4-methoxyphenyl)methyl]-N-methylacetamide]", "% of control remaining": 90.8293}, {"compound": "C=CC(=O)Nc1sc2c(c1C(=O)c1ccc(C)cc1)CCOC2", "note": "[1-J22, N-[3-(4-methylbenzoyl)-4H,5H,7H-thieno[2,3-c]pyran-2-yl]prop-2-enamide]", "% of control remaining": 128.703}, {"compound": "O=C(CCl)Nc1ccccc1C(=O)Nc1ccc(Cl)cc1", "note": "[4-G10, 2-(2-chloroacetamido)-N-(4-chlorophenyl)benzamide]", "% of control remaining": 96.808}, {"compound": "CN1C(=O)Cc2cc(C(=O)CCl)ccc21", "note": "[10-G07, 5-(2-chloroacetyl)-1-methyl-2,3-dihydro-1H-indol-2-one]", "% of control remaining": 132.813}, {"compound": "N#CC(=Cc1c(F)c(F)c(F)c(F)c1F)C(=O)NC1CCCCC1", "note": "[8-O15, 2-cyano-N-cyclohexyl-3-(2,3,4,5,6-pentafluorophenyl)prop-2-enamide]", "% of control remaining": 32.5311}, {"compound": "Cc1cc(Cl)ccc1CN1CCN(C(=O)C(C)Cl)CC1", "note": "(centres unmarked) [5-B13, 2-chloro-1-{4-[(4-chloro-2-methylphenyl)methyl]piperazin-1-yl}propan-1-one]", "% of control remaining": 101.639}, {"compound": "C=CC(=O)N(Cc1nccc2c1CCCC2)C1CCCC(OC)C1", "note": "(centres unmarked) [1-F11, N-(3-methoxycyclohexyl)-N-[(5,6,7,8-tetrahydroisoquinolin-1-yl)methyl]prop-2-enamide]", "% of control remaining": 90.022}, {"compound": "C=CC(=O)NC1CCS(=O)(=O)c2ccc(F)cc21", "note": "(centres unmarked) [2-J19, N-(6-fluoro-1,1-dioxo-3,4-dihydro-2H-1lambda6-benzothiopyran-4-yl)prop-2-enamide]", "% of control remaining": 104.439}, {"compound": "C=CC(=O)NCCNS(=O)(=O)c1cc(C)sc1C", "note": "[3-C21, N-[2-(2,5-dimethylthiophene-3-sulfonamido)ethyl]prop-2-enamide]", "% of control remaining": 105.181}, {"compound": "Cc1ccc(C=C(C#N)C(=O)Nc2nccs2)o1", "note": "[9-P10, 2-cyano-3-(5-methylfuran-2-yl)-N-(1,3-thiazol-2-yl)prop-2-enamide]", "% of control remaining": 83.8951}, {"compound": "Cc1ccc(F)c(S(=O)(=O)NCCNC(=O)CCl)c1", "note": "[7-P12, 2-chloro-N-[2-(2-fluoro-5-methylbenzenesulfonamido)ethyl]acetamide]", "% of control remaining": 74.7253}, {"compound": "Cc1cccc(NC(=O)c2ccccc2NC(=O)CCl)c1", "note": "[4-C10, 2-(2-chloroacetamido)-N-(3-methylphenyl)benzamide]", "% of control remaining": 115.484}, {"compound": "N#CC(=Cc1ccc(OC(F)F)cc1)C(=O)Nc1ccccc1", "note": "[9-G15, 2-cyano-3-[4-(difluoromethoxy)phenyl]-N-phenylprop-2-enamide]", "% of control remaining": 122.247}, {"compound": "Cc1cc(C(=O)CCl)c(C)n1-c1ccc(C(F)(F)F)cc1", "note": "[10-J14, 2-chloro-1-{2,5-dimethyl-1-[4-(trifluoromethyl)phenyl]-1H-pyrrol-3-yl}ethan-1-one]", "% of control remaining": 0}, {"compound": "C=CC(=O)N1CCC(C(=O)Nc2ccc(CC)cc2)CC1", "note": "[3-J12, N-(4-ethylphenyl)-1-(prop-2-enoyl)piperidine-4-carboxamide]", "% of control remaining": 97.5185}, {"compound": "CC(Cl)C(=O)N1CCC(NS(=O)(=O)c2cccs2)CC1", "note": "(centres unmarked) [7-L07, N-[1-(2-chloropropanoyl)piperidin-4-yl]thiophene-2-sulfonamide]", "% of control remaining": 108.32}, {"compound": "C=CC(=O)N1CCOC(c2cnn(C)c2)C1", "note": "(centres unmarked) [3-K11, 1-[2-(1-methyl-1H-pyrazol-4-yl)morpholin-4-yl]prop-2-en-1-one]", "% of control remaining": 119.808}, {"compound": "CC(Cl)C(=O)N(Cc1ccco1)C1CCN(C)CC1", "note": "(centres unmarked) [7-L17, 2-chloro-N-[(furan-2-yl)methyl]-N-(1-methylpiperidin-4-yl)propanamide]", "% of control remaining": 85.4003}, {"compound": "Cc1c(NC(=O)CCl)c(=O)n(-c2ccccc2)n1C", "note": "[5-G17, 2-chloro-N-(1,5-dimethyl-3-oxo-2-phenyl-2,3-dihydro-1H-pyrazol-4-yl)acetamide]", "% of control remaining": 107.468}, {"compound": "C=CC(=O)N1CCOC(Cn2nc(C)nc2C)C1", "note": "(centres unmarked) [1-B09, 1-{2-[(3,5-dimethyl-1H-1,2,4-triazol-1-yl)methyl]morpholin-4-yl}prop-2-en-1-one]", "% of control remaining": 123.78}, {"compound": "C=CC(=O)Nc1ccc2ccn(CCN(C)C)c2c1", "note": "[1-L21, N-{1-[2-(dimethylamino)ethyl]-1H-indol-6-yl}prop-2-enamide]", "% of control remaining": 117.802}, {"compound": "CC(Cl)C(=O)Nc1ccc(Cc2nnc3ncccn23)cc1", "note": "(centres unmarked) [7-O22, 2-chloro-N-[4-({[1,2,4]triazolo[4,3-a]pyrimidin-3-yl}methyl)phenyl]propanamide]", "% of control remaining": 88.54}]}]}
